Assay results from PMC3584282.
Results are given in words; binding and its absence hold for the method and conditions named. For some assays here: In cells and extracts the contact can be indirect. Some entries that bind do so weakly or less than the wild type. For some assays here: Where a sequence is shown, tags or fusion partners need not be part of it. Values belong to the binder of their own block, whether it stands above or below them.

What was measured:
GST-Arl8b-Q75L = GST-Arl8b-Q75L (UniProt Q9NVJ2); test: pull-down; lysates of HeLa cells transfected with HA-VPS41 passed over glutathione beads bound to GST or GST-Arl8b (WT, Q75L, T34N); eluates on SDS-PAGE, immunoblotted anti-HA; only the target purified
GST-Arl8b-T34N = GST-Arl8b-T34N (UniProt Q9NVJ2); test: as above
[1] = target: GST-Arl8b (glutathione-S-transferase-tagged Arl8b) (UniProt Q9NVJ2); test: as above
[2] = target: dominant-active Arl8b Q75L in the DNA-binding domain vector (yeast two-hybrid) (UniProt Q9NVJ2); test: two-hybrid; yeast two-hybrid (Matchmaker, Clonetech); baits in the DNA-binding domain vector, preys in the activation domain vector; growth on selective medium (-His)
[3] = target: Arl8b in the DNA-binding domain vector (yeast two-hybrid) (UniProt Q9NVJ2); test: as above
[4] = target: Histadine-tagged Arl8b (His-Arl8b) (UniProt Q9NVJ2); test: pull-down; two-protein system: purified His-Arl8b immobilised on cobalt resin, exposed to purified GST, GST-VPS41 or GST-RILP; eluates on SDS-PAGE, blotted anti-GST; both purified
[5] = target: T1, Arl8b in the DNA-binding domain vector (yeast two-hybrid), Q9NVJ2; test: two-hybrid; yeast two-hybrid (Matchmaker, Clonetech); baits in the DNA-binding domain vector, preys in the activation domain vector; growth on selective medium (-His); settings: remark: other sources report otherwise
T1 chain: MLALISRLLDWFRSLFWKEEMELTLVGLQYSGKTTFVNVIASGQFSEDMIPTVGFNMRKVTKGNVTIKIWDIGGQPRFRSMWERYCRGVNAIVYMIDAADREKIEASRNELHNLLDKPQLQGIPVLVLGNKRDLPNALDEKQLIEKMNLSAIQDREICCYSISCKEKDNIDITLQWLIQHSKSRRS

B2: VPS41 in the activation domain vector (yeast two-hybrid) (protein, UniProt P49754 1-854)
chain: MAEAEEQETGSLEESTDESEEEESEEEPKLKYERLSNGVTEILQKDAASCMTVHDKFLALGTHYGKVYLLDVQGNITQKFDVSPVKINQISLDESGEHMGVCSEDGKVQVFGLYSGEEFHETFDCPIKIIAVHPHFVRSSCKQFVTGGKKLLLFERSWMNRWKSAVLHEGEGNIRSVKWRGHLIAWANNMGVKIFDIISKQRITNVPRDDISLRPDMYPCSLCWKDNVTLIIGWGTSVKVCSVKERHASEMRDLPSRYVEIVSQFETEFYISGLAPLCDQLVVLSYVKEISEKTEREYCARPRLDIIQPLSETCEEISSDALTVRGFQENECRDYHLEYSEGESLFYIVSPRDVVVAKERDQDDHIDWLLEKKKYEEALMAAEISQKNIKRHKILDIGLAYINHLVERGDYDIAARKCQKILGKNAALWEYEVYKFKEIGQLKAISPYLPRGDPVLKPLIYEMILHEFLESDYEGFATLIREWPGDLYNNSVIVQAVRDHLKKDSQNKTLLKTLAELYTYDKNYGNALEIYLTLRHKDVFQLIHKHNLFSSIKDKIVLLMDFDSEKAVDMLLDNEDKISIKKVVEELEDRPELQHVYLHKLFKRDHHKGQRYHEKQISLYAEYDRPNLLPFLRDSTHCPLEKALEICQQRNFVEETVYLLSRMGNSRSALKMIMEELHDVDKAIEFAKEQDDGELWEDLILYSIDKPPFITGLLNNIGTHVDPILLIHRIKEGMEIPNLRDSLVKILQDYNLQILLREGCKKILVADSLSLLKKMHRTQMKGVLVDEENICESCLSPILPSDAAKPFSVVVFHCRHMFHKECLPMPSMNSAAQFCNICSAKNRGPGSAILEMKK
- binding [2]: binds
- binding [3]: binds

B4: VPS39 in the activation domain vector (yeast two-hybrid) (protein, UniProt Q96JC1 1-886)
chain: MHDAFEPVPILEKLPLQIDCLAAWEEWLLVGTKQGHLLLYRIRKDVVPADVASPESGSCNRFEVTLEKSNKNFSKKIQQIHVVSQFKILVSLLENNIYVHDLLTFQQITTVSKAKGASLFTCDLQHTETGEEVLRMCVAVKKKLQLYFWKDREFHELQGDFSVPDVPKSMAWCENSICVGFKRDYYLIRVDGKGSIKELFPTGKQLEPLVAPLADGKVAVGQDDLTVVLNEEGICTQKCALNWTDIPVAMEHQPPYIIAVLPRYVEIRTFEPRLLVQSIELQRPRFITSGGSNIIYVASNHFVWRLIPVPMATQIQQLLQDKQFELALQLAEMKDDSDSEKQQQIHHIKNLYAFNLFCQKRFDESMQVFAKLGTDPTHVMGLYPDLLPTDYRKQLQYPNPLPVLSGAELEKAHLALIDYLTQKRSQLVKKLNDSDHQSSTSPLMEGTPTIKSKKKLLQIIDTTLLKCYLHTNVALVAPLLRLENNHCHIEESEHVLKKAHKYSELIILYEKKGLHEKALQVLVDQSKKANSPLKGHERTVQYLQHLGTENLHLIFSYSVWVLRDFPEDGLKIFTEDLPEVESLPRDRVLGFLIENFKGLAIPYLEHIIHVWEETGSRFHNCLIQLYCEKVQGLMKEYLLSFPAGKTPVPAGEEEGELGEYRQKLLMFLEISSYYDPGRLICDFPFDGLLEERALLLGRMGKHEQALFIYVHILKDTRMAEEYCHKHYDRNKDGNKDVYLSLLRMYLSPPSIHCLGPIKLELLEPKANLQAALQVLELHHSKLDTTKALNLLPANTQINDIRIFLEKVLEENAQKKRFNQVLKNLLHAEFLRVQEERILHQQVKCIITEEKVCMVCKKKIGNSAFARYPNGVVVHYFCSKEVNPADT
- binding [3]: no binding

B5: VPS18 in the activation domain vector (yeast two-hybrid), Q9P253 1-973 (protein)
chain: MASILDEYENSLSRSAVLQPGCPSVGIPHSGYVNAQLEKEVPIFTKQRIDFTPSERITSLVVSSNQLCMSLGKDTLLRIDLGKANEPNHVELGRKDDAKVHKMFLDHTGSHLLIALSSTEVLYVNRNGQKVRPLARWKGQLVESVGWNKALGTESSTGPILVGTAQGHIFEAELSASEGGLFGPAPDLYFRPLYVLNEEGGPAPVCSLEAERGPDGRSFVIATTRQRLFQFIGRAAEGAEAQGFSGLFAAYTDHPPPFREFPSNLGYSELAFYTPKLRSAPRAFAWMMGDGVLYGALDCGRPDSLLSEERVWEYPEGVGPGASPPLAIVLTQFHFLLLLADRVEAVCTLTGQVVLRDHFLEKFGPLKHMVKDSSTGQLWAYTERAVFRYHVQREARDVWRTYLDMNRFDLAKEYCRERPDCLDTVLAREADFCFRQRRYLESARCYALTQSYFEEIALKFLEARQEEALAEFLQRKLASLKPAERTQATLLTTWLTELYLSRLGALQGDPEALTLYRETKECFRTFLSSPRHKEWLFASRASIHELLASHGDTEHMVYFAVIMQDYERVVAYHCQHEAYEEALAVLARHRDPQLFYKFSPILIRHIPRQLVDAWIEMGSRLDARQLIPALVNYSQGGEVQQVSQAIRYMEFCVNVLGETEQAIHNYLLSLYARGRPDSLLAYLEQAGASPHRVHYDLKYALRLCAEHGHHRACVHVYKVLELYEEAVDLALQVDVDLAKQCADLPEEDEELRKKLWLKIARHVVQEEEDVQTAMACLASCPLLKIEDVLPFFPDFVTIDHFKEAICSSLKAYNHHIQELQREMEEATASAQRIRRDLQELRGRYGTVEPQDKCATCDFPLLNRPFYLFLCGHMFHADCLLQAVRPGLPAYKQARLEELQRKLGAAPPPAKGSARAKEAEGGAATAGPSREQLKADLDELVAAECVYCGELMIRSIDRPFIDPQRYEEEQLSWL
- binding [5]: no binding

The next lines start with the values.

- binding (GST-Arl8b-Q75L): binds
- binding (GST-Arl8b-T34N): no binding
- binding [1]: binds
B1: HA-VPS41 (hemagglutinin-tagged VPS41) (protein, UniProt P49754 1-854)
chain: MAEAEEQETGSLEESTDESEEEESEEEPKLKYERLSNGVTEILQKDAASCMTVHDKFLALGTHYGKVYLLDVQGNITQKFDVSPVKINQISLDESGEHMGVCSEDGKVQVFGLYSGEEFHETFDCPIKIIAVHPHFVRSSCKQFVTGGKKLLLFERSWMNRWKSAVLHEGEGNIRSVKWRGHLIAWANNMGVKIFDIISKQRITNVPRDDISLRPDMYPCSLCWKDNVTLIIGWGTSVKVCSVKERHASEMRDLPSRYVEIVSQFETEFYISGLAPLCDQLVVLSYVKEISEKTEREYCARPRLDIIQPLSETCEEISSDALTVRGFQENECRDYHLEYSEGESLFYIVSPRDVVVAKERDQDDHIDWLLEKKKYEEALMAAEISQKNIKRHKILDIGLAYINHLVERGDYDIAARKCQKILGKNAALWEYEVYKFKEIGQLKAISPYLPRGDPVLKPLIYEMILHEFLESDYEGFATLIREWPGDLYNNSVIVQAVRDHLKKDSQNKTLLKTLAELYTYDKNYGNALEIYLTLRHKDVFQLIHKHNLFSSIKDKIVLLMDFDSEKAVDMLLDNEDKISIKKVVEELEDRPELQHVYLHKLFKRDHHKGQRYHEKQISLYAEYDRPNLLPFLRDSTHCPLEKALEICQQRNFVEETVYLLSRMGNSRSALKMIMEELHDVDKAIEFAKEQDDGELWEDLILYSIDKPPFITGLLNNIGTHVDPILLIHRIKEGMEIPNLRDSLVKILQDYNLQILLREGCKKILVADSLSLLKKMHRTQMKGVLVDEENICESCLSPILPSDAAKPFSVVVFHCRHMFHKECLPMPSMNSAAQFCNICSAKNRGPGSAILEMKK

- binding [4]: binds
B3: GST-tagged VPS41 (GST-VPS41) (protein, UniProt P49754 1-854)
chain: MAEAEEQETGSLEESTDESEEEESEEEPKLKYERLSNGVTEILQKDAASCMTVHDKFLALGTHYGKVYLLDVQGNITQKFDVSPVKINQISLDESGEHMGVCSEDGKVQVFGLYSGEEFHETFDCPIKIIAVHPHFVRSSCKQFVTGGKKLLLFERSWMNRWKSAVLHEGEGNIRSVKWRGHLIAWANNMGVKIFDIISKQRITNVPRDDISLRPDMYPCSLCWKDNVTLIIGWGTSVKVCSVKERHASEMRDLPSRYVEIVSQFETEFYISGLAPLCDQLVVLSYVKEISEKTEREYCARPRLDIIQPLSETCEEISSDALTVRGFQENECRDYHLEYSEGESLFYIVSPRDVVVAKERDQDDHIDWLLEKKKYEEALMAAEISQKNIKRHKILDIGLAYINHLVERGDYDIAARKCQKILGKNAALWEYEVYKFKEIGQLKAISPYLPRGDPVLKPLIYEMILHEFLESDYEGFATLIREWPGDLYNNSVIVQAVRDHLKKDSQNKTLLKTLAELYTYDKNYGNALEIYLTLRHKDVFQLIHKHNLFSSIKDKIVLLMDFDSEKAVDMLLDNEDKISIKKVVEELEDRPELQHVYLHKLFKRDHHKGQRYHEKQISLYAEYDRPNLLPFLRDSTHCPLEKALEICQQRNFVEETVYLLSRMGNSRSALKMIMEELHDVDKAIEFAKEQDDGELWEDLILYSIDKPPFITGLLNNIGTHVDPILLIHRIKEGMEIPNLRDSLVKILQDYNLQILLREGCKKILVADSLSLLKKMHRTQMKGVLVDEENICESCLSPILPSDAAKPFSVVVFHCRHMFHKECLPMPSMNSAAQFCNICSAKNRGPGSAILEMKK
